# According to PubChem BioAssay (NCI):
#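 The compound was tested at five concentrations on cells cultured in 96-well plates, with a 48-hour exposure period. The concentration for 50% growth inhibition is given as GI50. The concentration for full growth arrest is given as TGI.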
# System: NCI-H322M lung
# Assay: DTP human tumour cell line panel, 48 h
structure (smiles),measurement,value
O=C1c2c(c3c4cc(Br)ccc4[nH]c3c3ccc4ccccc4c23)C(=O)N1CCN1CCCCC1,GI50,1820 nM
same,TGI,5.01 µM
